# Data taken from publication PMC9911399, “Two distinct binding modes provide the RNA-binding protein RbFox with extraordinary sequence specificity”.
# Changes are numbered by the printed parent chain; changes in the protein carry UniProt numbers. Some of the results follow.
# T1: RBFOX1 RRM RbFoxmut (Fox-RRM*) (Homo sapiens, UniProt Q9NWB1 109-208, R118D;E147R;N151S;E152T)
# T1 sequence: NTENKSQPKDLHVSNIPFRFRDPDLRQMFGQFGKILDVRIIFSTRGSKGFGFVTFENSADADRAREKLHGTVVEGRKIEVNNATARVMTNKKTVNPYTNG
# B1: GUGUGUU (DNA:RNA)
# RNA: GGGAGACCGGAAUUCAGAUUGUCCGUGUGUUUUAAAUCCCGUCGUAGCCACCA
# DNA 1: CAATCTGAATTCCGGTCTCCC
# DNA 2: TGGTGGCTACGACGGGATT
# B2: UAAUUCU (DNA:RNA)
# RNA: B1 RNA with G25U, U26A, G27A, G29U, U30C
# DNA 1: CAATCTGAATTCCGGTCTCCC
# DNA 2: TGGTGGCTACGACGGGATT
# B3: AACUUUU (DNA:RNA)
# RNA: B1 RNA with G25A, U26A, G27C, G29U
# DNA 1: CAATCTGAATTCCGGTCTCCC
# DNA 2: TGGTGGCTACGACGGGATT
# B4: UUAUUGG (DNA:RNA)
# RNA: B1 RNA with G25U, G27A, G29U, U30G, U31G
# DNA 1: CAATCTGAATTCCGGTCTCCC
# DNA 2: TGGTGGCTACGACGGGATT
# B5: UCUUCCC (DNA:RNA)
# RNA: B1 RNA with G25U, U26C, G27U, G29C, U30C, U31C
# DNA 1: CAATCTGAATTCCGGTCTCCC
# DNA 2: TGGTGGCTACGACGGGATT
# B6: GUUCUCU (DNA:RNA)
# RNA: B1 RNA with G27U, U28C, G29U, U30C
# DNA 1: CAATCTGAATTCCGGTCTCCC
# DNA 2: TGGTGGCTACGACGGGATT
# B7: AUUUCUU (DNA:RNA)
# RNA: B1 RNA with G25A, G27U, G29C
# DNA 1: CAATCTGAATTCCGGTCTCCC
# DNA 2: TGGTGGCTACGACGGGATT
# B8: AUUUUGA (DNA:RNA)
# RNA: B1 RNA with G25A, G27U, G29U, U30G, U31A
# DNA 1: CAATCTGAATTCCGGTCTCCC
# DNA 2: TGGTGGCTACGACGGGATT
# B9: CUACCGC (DNA:RNA)
# RNA: B1 RNA with G25C, G27A, U28C, G29C, U30G, U31C
# DNA 1: CAATCTGAATTCCGGTCTCCC
# DNA 2: TGGTGGCTACGACGGGATT
# B10: UUUGUAU (DNA:RNA)
# RNA: B1 RNA with G25U, G27U, U28G, G29U, U30A
# DNA 1: CAATCTGAATTCCGGTCTCCC
# DNA 2: TGGTGGCTACGACGGGATT
# B11: UUCUGUU (DNA:RNA)
# RNA: B1 RNA with G25U, G27C
# DNA 1: CAATCTGAATTCCGGTCTCCC
# DNA 2: TGGTGGCTACGACGGGATT
# B12: GCGUCAU (DNA:RNA)
# RNA: B1 RNA with U26C, G29C, U30A
# DNA 1: CAATCTGAATTCCGGTCTCCC
# DNA 2: TGGTGGCTACGACGGGATT
# B13: CGCCUUU (DNA:RNA)
# RNA: B1 RNA with G25C, U26G, G27C, U28C, G29U
# DNA 1: CAATCTGAATTCCGGTCTCCC
# DNA 2: TGGTGGCTACGACGGGATT
# B14: UAUCGCC (DNA:RNA)
# RNA: B1 RNA with G25U, U26A, G27U, U28C, U30C, U31C
# DNA 1: CAATCTGAATTCCGGTCTCCC
# DNA 2: TGGTGGCTACGACGGGATT
# B15: UCUAUAC (DNA:RNA)
# RNA: GGGAGACCGGAAUUCAGAUUGUCCUCUAUACUUAAAUCCCGUCGUAGCCACCA
# DNA 1: CAATCTGAATTCCGGTCTCCC
# DNA 2: TGGTGGCTACGACGGGATT
# B16: UCAUUGA (DNA:RNA)
# RNA: B15 RNA with U27A, A28U, A30G, C31A
# DNA 1: CAATCTGAATTCCGGTCTCCC
# DNA 2: TGGTGGCTACGACGGGATT
# B17: AGCAGAG (DNA:RNA)
# RNA: B15 RNA with U25A, C26G, U27C, U29G, C31G
# DNA 1: CAATCTGAATTCCGGTCTCCC
# DNA 2: TGGTGGCTACGACGGGATT
# B18: UAUGUUC (DNA:RNA)
# RNA: B15 RNA with C26A, A28G, A30U
# DNA 1: CAATCTGAATTCCGGTCTCCC
# DNA 2: TGGTGGCTACGACGGGATT
# B19: UCCGAAC (DNA:RNA)
# RNA: B15 RNA with U27C, A28G, U29A
# DNA 1: CAATCTGAATTCCGGTCTCCC
# DNA 2: TGGTGGCTACGACGGGATT
# B20: ACCUUUU (DNA:RNA)
# RNA: B1 RNA with G25A, U26C, G27C, G29U
# DNA 1: CAATCTGAATTCCGGTCTCCC
# DNA 2: TGGTGGCTACGACGGGATT
# B21: AAGGUCA (DNA:RNA)
# RNA: B1 RNA with G25A, U26A, U28G, G29U, U30C, U31A
# DNA 1: CAATCTGAATTCCGGTCTCCC
# DNA 2: TGGTGGCTACGACGGGATT
# B22: CAUAACG (DNA:RNA)
# RNA: B15 RNA with U25C, C26A, U29A, A30C, C31G
# DNA 1: CAATCTGAATTCCGGTCTCCC
# DNA 2: TGGTGGCTACGACGGGATT
# B23: GAGCACA (DNA:RNA)
# RNA: B1 RNA with U26A, U28C, G29A, U30C, U31A
# DNA 1: CAATCTGAATTCCGGTCTCCC
# DNA 2: TGGTGGCTACGACGGGATT
# B24: GAUCAAC (DNA:RNA)
# RNA: B15 RNA with U25G, C26A, A28C, U29A
# DNA 1: CAATCTGAATTCCGGTCTCCC
# DNA 2: TGGTGGCTACGACGGGATT
# B25: CCGGUAG (DNA:RNA)
# RNA: B15 RNA with U25C, U27G, A28G, C31G
# DNA 1: CAATCTGAATTCCGGTCTCCC
# DNA 2: TGGTGGCTACGACGGGATT
# B26: GUUUGCA (DNA:RNA)
# RNA: B1 RNA with G27U, U30C, U31A
# DNA 1: CAATCTGAATTCCGGTCTCCC
# DNA 2: TGGTGGCTACGACGGGATT
# B27: GUGCUCG (DNA:RNA)
# RNA: B1 RNA with U28C, G29U, U30C, U31G
# DNA 1: CAATCTGAATTCCGGTCTCCC
# DNA 2: TGGTGGCTACGACGGGATT
# B28: UGAAACU (DNA:RNA)
# RNA: B15 RNA with C26G, U27A, U29A, A30C, C31U
# DNA 1: CAATCTGAATTCCGGTCTCCC
# DNA 2: TGGTGGCTACGACGGGATT
# B29: CUUUCAA (DNA:RNA)
# RNA: B1 RNA with G25C, G27U, G29C, U30A, U31A
# DNA 1: CAATCTGAATTCCGGTCTCCC
# DNA 2: TGGTGGCTACGACGGGATT
# B30: CCGUUAU (DNA:RNA)
# RNA: B1 RNA with G25C, U26C, G29U, U30A
# DNA 1: CAATCTGAATTCCGGTCTCCC
# DNA 2: TGGTGGCTACGACGGGATT
# B31: AGACGCU (DNA:RNA)
# RNA: B1 RNA with G25A, U26G, G27A, U28C, U30C
# DNA 1: CAATCTGAATTCCGGTCTCCC
# DNA 2: TGGTGGCTACGACGGGATT
# Target: T1, RBFOX1 RRM RbFoxmut (Fox-RRM*)
# Assay: EMSA; HiTS-Eq, 1 nM pool, 10 min; buffer printed only for the single-RNA assays: 10 mM Tris pH 7.5, 150 mM NaCl, 3.4 mM EDTA, 0.001% NP-40, 30 C
# Conditions: tags: His6 N-terminal (pET28a); label: 5' 32P
# Procedure, shortened: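 Purified RbFox RRM (wild type or mutant) was equilibrated for 10 min in 50 µL with 1 nM of a 5′-radiolabelled pool of RNA with 7 randomized nucleotides, its flanks annealed to DNA oligonucleotides, across increasing protein concentrations. Free RNA was separated by 8% native PAGE, excised, reverse-transcribed, PCR-barcoded and sequenced on an Illumina HiSeq 2500. Relative association constants came from read-count changes of each variant against the control reaction, normalised to the cognate motif.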
row,Binder,binding signal
1,B1,0.184 KA relative to UGCAUGU
2,B2,0.0702 KA relative to UGCAUGU
3,B3,0.0643 KA relative to UGCAUGU
4,B4,0.0921 KA relative to UGCAUGU
5,B5,0.0652 KA relative to UGCAUGU
6,B6,0.0707 KA relative to UGCAUGU
7,B7,0.103 KA relative to UGCAUGU
8,B8,0.0954 KA relative to UGCAUGU
9,B9,0.108 KA relative to UGCAUGU
10,B10,0.156 KA relative to UGCAUGU
11,B11,0.105 KA relative to UGCAUGU
12,B12,0.0884 KA relative to UGCAUGU
13,B13,0.0753 KA relative to UGCAUGU
14,B14,0.124 KA relative to UGCAUGU
15,B15,0.102 KA relative to UGCAUGU
16,B16,0.13 KA relative to UGCAUGU

row,Binder,binding signal
1,B17,0.13 KA relative to UGCAUGU
2,B18,0.125 KA relative to UGCAUGU
3,B19,0.0579 KA relative to UGCAUGU
4,B20,0.0865 KA relative to UGCAUGU
5,B21,0.0765 KA relative to UGCAUGU
6,B22,0.14 KA relative to UGCAUGU
7,B23,0.0821 KA relative to UGCAUGU
8,B24,0.0512 KA relative to UGCAUGU
9,B25,0.132 KA relative to UGCAUGU
10,B26,0.353 KA relative to UGCAUGU
11,B27,0.226 KA relative to UGCAUGU
12,B28,0.0458 KA relative to UGCAUGU
13,B29,0.0664 KA relative to UGCAUGU
14,B30,0.0907 KA relative to UGCAUGU
15,B31,0.0715 KA relative to UGCAUGU
